From PubChem BioAssay (NCI)
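Each compound was tested at five concentrations against cells in 96-well plates for 48 hours. TGI: concentration producing complete growth inhibition.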 Some entries of the source have several records that differ or are many. The other results are left out here. An entry can have further records. Records of one sample usually come from different ranges of test concentrations, which the source does not state; some values may only mark the edge of a range. Brackets tell where a record comes from. The letters are not those of the source and start again with each entry.

Columns and labels:
Experiment in all cases: NCI tumour cell line growth inhibition, 48 h
[1] = system: HCT-116 colon
[2] = system: OVCAR-3 ovarian
[3] = system: M14 melanoma
[4] = system: UO-31 renal
[5] = system: UACC-257 melanoma
[6] = system: OVCAR-8 ovarian
[7] = system: MCF7 breast
[8] = system: MDA-MB-231 breast
[9] = system: PC-3 prostate
[10] = system: UACC-62 melanoma
[11] = system: SR leukemia
[12] = system: CAKI-1 renal
[13] = system: CCRF-CEM leukemia
[14] = system: RPMI-8226 leukemia
[15] = system: NCI-H226 lung
[16] = system: SK-MEL-2 melanoma
[17] = system: NCI/ADR-RES ovarian
[18] = system: LOX IMVI melanoma
[19] = system: HCC-2998 colon
[20] = system: ACHN renal
[21] = system: 786-0 renal
[22] = system: HCT-15 colon
[23] = system: HT29 colon
[24] = system: HOP-62 NSCLC
[25] = system: NCI-H522 lung
[26] = system: SN12C renal
[27] = system: IGROV1 ovarian
[28] = system: HL-60(TB) leukemia
[29] = system: COLO 205 colon
[30] = system: A549 NSCLC
[31] = system: EKVX NSCLC
[32] = system: OVCAR-5 ovarian
[33] = system: T-47D breast
[34] = system: BT-549 breast
[35] = system: NCI-H23 lung
[36] = system: KM12 colon
[37] = system: HOP-92 NSCLC
[38] = system: TK-10 renal
[39] = system: MALME-3M melanoma
[40] = system: RXF 393 renal
[41] = system: A498 renal
[42] = system: MOLT-4 leukemia
[43] = system: SK-MEL-5 melanoma
[44] = system: OVCAR-4 ovarian
[45] = system: K-562 leukemia
[46] = system: HS 578T breast

CC/C(=C(\c1ccccc1)c1ccc(OCCN(C)C)cc1)c1ccccc1
TGI [1]: > 25 µM, 13.7 µM, 12.9 µM, 10.6 µM, 9.71 µM [sample A] and 8.29 µM [sample B] | TGI [2]: > 25 µM, 11 µM, 25.5 µM, 9.65 µM, 10.2 µM [sample A] and 9.37 µM [sample B] | TGI [3]: > 25 µM, 5.21 µM, 5.91 µM, 8.05 µM, 5.72 µM [sample A] and 2.13 µM [sample B] | TGI [4]: > 25 µM, 17.3 µM, 58.4 µM, 8.99 µM, 9.47 µM [sample A] and 12.4 µM [sample B] | TGI [5]: > 25 µM, 7.23 µM, 8.14 µM, 8.8 µM, 8.37 µM [sample A] and 2.74 µM [sample B] | TGI [6]: > 25 µM, 19.2 µM, 50.6 µM, 12 µM, 11.5 µM [sample A] and 13 µM [sample B] | TGI [7]: 25, 6.81, 5.85, 7.41, 9.33 µM [sample A] and 6.98 µM [sample B] | TGI [8]: > 25 µM, 17.3 µM, 15 µM, 9.45 µM, 10.4 µM [sample A] and 10.5 µM [sample B] | TGI [9]: > 25 µM, 10 µM, 21 µM, 8.6 µM, 9.86 µM [sample A] and 9.3 µM [sample B] | TGI [10]: > 25 µM, 15.8 µM, 15.5 µM, 10.4 µM, 13.1 µM [sample A] and 6.65 µM [sample B] | TGI [11]: > 25 µM, 4.49 µM, 11.6 µM, 34.9 µM [sample A] and 5.29 µM [sample B] | TGI [12]: 25.2 µM [sample A, 1 test] and 14.2 µM [sample A, mean of 14 tests] and > 25 µM, 17 µM [sample A, mean of 2 tests] and 11.2 µM [sample A, mean of 8 tests] and 10.9 µM [sample B, 1 test] | TGI [13]: > 25 µM, 9.77 µM, 18.7 µM, 32.2 µM [sample A] and 9.44 µM [sample B] | TGI [14]: 7.54 µM [sample A, 1 test] and 8.1 µM [sample A, mean of 14 tests] and > 25 µM [sample A, mean of 2 tests] and 32.9 µM [sample A, mean of 4 tests] and 3.27 µM [sample B, 1 test] | TGI [15]: > 25 µM, 27.5 µM, 23.8 µM, 12.1 µM, 11.6 µM [sample A] and 13.4 µM [sample B] | TGI [16]: > 25 µM, 13.2 µM, 9.11 µM, 14.9 µM [sample A] and 12.5 µM [sample B] | TGI [17]: > 25 µM, 14.2 µM, 21.3 µM, 10.5 µM, 13.7 µM [sample A] and 10.3 µM [sample B] | TGI [18]: > 25 µM, 4.49 µM, 3.98 µM, 7.83 µM, 5.96 µM [sample A] and 5.83 µM [sample B] | TGI [19]: > 25 µM, 6.31 µM, 11.8 µM, 7.95 µM, 7.76 µM [sample A] and 3.74 µM [sample B] | TGI [20]: > 25 µM, 15.5 µM, 27.6 µM, 14.1 µM [sample A] and 12.9 µM [sample B] | TGI [21]: > 25 µM, 11.2 µM, 6.11 µM, 8.55 µM [sample A] and 10.9 µM [sample B] | TGI [22]: > 25 µM, 10.3 µM, 11.2 µM, 9.09 µM, 9.23 µM [sample A] and 7.43 µM [sample B] | TGI [23]: > 25 µM, 5.67 µM, 4.7 µM, 7.4 µM, 6.35 µM [sample A] and 2.69 µM [sample B] | TGI [24]: > 25 µM, 21.8 µM, 34.8 µM, 8.64 µM, 10.9 µM [sample A] and 11.8 µM [sample B] | TGI [25]: 42.7 µM [sample A, 1 test] and 16.6 µM [sample A, mean of 12 tests] and > 25 µM, 9.99 µM [sample A, mean of 2 tests] and 8.34 µM [sample A, mean of 4 tests] and 4.96 µM [sample B, 1 test] | TGI [26]: 26.9 µM, 10.6 µM [sample A, 1 test] and 16.4 µM [sample A, mean of 14 tests] and > 25 µM [sample A, mean of 2 tests] and 8.07 µM [sample A, mean of 6 tests] and 10.2 µM [sample B, 1 test] | TGI [27]: > 25 µM, 13.7 µM, 125 µM, 11.1 µM, 10.9 µM [sample A] and 11.4 µM [sample B] | TGI [28]: 5.11 µM [sample A, 1 test] and 9.54 µM [sample A, mean of 13 tests] and > 25 µM [sample A, mean of 2 tests] and 32.2 µM [sample A, mean of 6 tests] and 3.71 µM [sample B, 1 test] | TGI [29]: > 25 µM, 5.32 µM, 7.45 µM, 8.01 µM, 9.16 µM [sample A] and 1.75 µM [sample B] | TGI [30]: > 25 µM, 11.9 µM, 37.3 µM, 11.1 µM, 12 µM [sample A] and 10 µM [sample B] | TGI [31]: > 25 µM, 20.2 µM, 27.3 µM, 13.9 µM, 18.1 µM [sample A] and 11.6 µM [sample B] | TGI [32]: 51.7 µM [sample A, 1 test] and 16 µM [sample A, mean of 14 tests] and > 25 µM, 15.7 µM [sample A, mean of 2 tests] and 9.81 µM [sample A, mean of 8 tests] and 14 µM [sample B, 1 test] | TGI [33]: > 25 µM, 12.3 µM, 21.4 µM, 9.64 µM, 5.89 µM [sample A] and 7.61 µM [sample B] | TGI [34]: > 25 µM, 19.2 µM, 16 µM, 13.3 µM, 7.61 µM [sample A] and 14.8 µM [sample B] | TGI [35]: > 25 µM, 16.1 µM, 34.2 µM, 11.2 µM, 12 µM [sample A] and 11.4 µM [sample B] | TGI [36]: 5.21 µM [sample A, 1 test] and 7.37 µM [sample A, mean of 14 tests] and > 25 µM, 12.7 µM [sample A, mean of 2 tests] and 7.42 µM [sample A, mean of 7 tests] and 8.8 µM [sample B, 1 test] | TGI [37]: 25, 12.5, 21.4, 9.41, 10.6 µM [sample A] and 8.2 µM [sample B] | TGI [38]: > 25 µM, 15.1 µM, 23.2 µM, 8.37 µM, 13.3 µM [sample A] and 11.1 µM [sample B] | TGI [39]: 4.6 µM [sample A, 1 test] and 7.49 µM [sample A, mean of 14 tests] and > 25 µM, 10.7 µM [sample A, mean of 2 tests] and 8.21 µM [sample A, mean of 4 tests] and 7.42 µM [sample B, 1 test] | TGI [40]: > 25 µM, 9.03 µM, 10.2 µM, 8.63 µM [sample A] and 5.96 µM [sample B] | TGI [41]: > 25 µM, 16.9 µM, 40.8 µM, 9.15 µM [sample A] and 10.1 µM [sample B] | TGI [42]: > 25 µM, 8.78 µM, 8.33 µM, 15.8 µM [sample A] and 10.5 µM [sample B] | TGI [43]: 4.37, 4.21, 7.57, 6.87 µM [sample A] and 1.6 µM [sample B] | TGI [44]: > 25 µM, 15.6 µM, 35.9 µM, 9.94 µM, 14.5 µM [sample A] and 13 µM [sample B] | TGI [45]: > 25 µM, 6.63 µM, 6.06 µM, 71.7 µM [sample A] and 6.23 µM [sample B] | TGI [46]: > 25 µM, 11.6 µM, 11.3 µM, 12.9 µM, 11.1 µM [sample A] and 14.4 µM [sample B]
